Reference: the RNAGym collection of RNA variant scans (doi:10.7554/elife.90254)
Read counts are not given, so values of variants with three or more changes are uncertain.

B1: LINE1-full (parent)
chain: UACGUAGGUGGUUUUCCCCUGAUAGUGCUAAGGGGGCCUGGAAGUUUGGACUGGGCAGAGCUCAACACAGCGUGGCAAAGUGGCUGUGGCUAGACUGCCUCUCUGGAUUCCUCGUCACUCAGCAGGGCAUCUCUGAGAGAAAUGCC

Variants of: B1
Assay: self-cleavage, relative activity (ratio to wild type); higher = more cleavage; in vitro, sequencing; the parent is a self-cleaving ribozyme

| Variant | self-cleavage |
| --- | --- |
| U108C G114A A142G | 1.58 |
| A6G U15C U26C G80A U134A | 1.02 |
| C3A U46C A117G | 0.57 |
| G89A U112A A138G A141G | 0.05 |
| A64G U115A A136G | 0.2 |
| C16U A64G A94U | 0.28 |
| A31U A94G U112C | 0.32 |
| U15C A43G U87A | 0.3 |
| U46A G89U A140G | 0.01 |
| U73C A140G U143A | 1.76 |
| A65U U112C G125U A140G | 0.11 |
| A22G C63U A92G A142G | 0.19 |
| C56U U62G U100A | 0.07 |
| C37U U47C A79G A129U | 1.29 |
| U14C U15C U109C A141G | 1.36 |
| U73A A78G U96A | 0.03 |
| U26C A42U C113A | 1.29 |
| U29C U45C A79G A129C | 0 |
| U100C G105U A129C | 2.49 |
| U12G U62C U104A A117G | 0 |
| U15C A43G U91C U115C | 1.84 |

| Variant | self-cleavage |
| --- | --- |
| U39A C111U A142G | 1.08 |
| U46C U85A A142U | 0.15 |
| U23C A78C A138U A141G | 1.84 |
| C76A C90U U104A A140G | 0.06 |
| U12C U91C A141G | 0.77 |
| A64G G88U U115C | 0 |
| A117U U130C A138U | 1.62 |
| U15C A67G U115A | 0.68 |
| U12C G36A G122A A124G U130C | 1.43 |
| C98G U109C G127A | 0.08 |
| U12G A30G U52A U102C U112C | 1.02 |
| A42G G70A A136G A138U | 0.15 |
| A65G U87A A141G | 0.03 |
| U9A A42G G106U | 1.01 |
| U1C U15C A65G A121U | 0 |
| C18G U20C A77G G127A | 1.94 |
| G60A G86A U109C | 0.03 |
| A79G A124G U143A | 0.68 |
| C68U C99U A136G | 0.04 |
| A57U U112C A136U | 0.13 |
| A42U U100C U130A | 2.01 |

| Variant | self-cleavage |
| --- | --- |
| U73C A92G A136U | 0 |
| C38U U39G U62C A129G | 0 |
| U47A A94G A142C | 0.08 |
| A6U G25C U26A C37G U46G U109C | 0.99 |
| U14C U62C U85C | 0.14 |
| A42G A78U U87C A124G | 0.92 |
| A67U C128A A138G | 0.1 |
| A79G G93A A121U A140G | 0.04 |
| U52A A79G A140G | 0.99 |
| C18U C61A U104C U143C | 0.03 |
| U39C U130A A141G | 0.86 |
| U46C U115A G137A | 1.35 |
| A59U C71A G83A U100A | 0.12 |
| U39A U47A A57G G74U A77G | 0.85 |
| A78G A129U A140U | 1 |
| A43U U45C A59G U109C | 0 |
| U15C U20A U26A G32U U46C | 0.83 |
| G8A U13G U81A U96A U132C | 0.23 |
| U13C A65G U85C U102C A138G | 0.84 |
| A22G U81A U102C A141G | 1.3 |
| A22G A30G A69G | 1.39 |

| Variant | self-cleavage |
| --- | --- |
| G32C U47C U104C | 1.11 |
| A65G A77G U119C | 0 |
| U115A A121G A140G C146U | 0.9 |
| A69U A117U A129U | 0.07 |
| U12A A65G U96A | 0.05 |
| U12C U14C U62C A140G | 0.18 |
| U62C G114A U134G A138U | 0.06 |
| G40U U45C U81C | 1.16 |
| U14C A57G U100C G122U G127A | 1.43 |
| U45A C71U A138G | 1.18 |
| G48U U52G G55A A69U U100C | 0.1 |
| A57U A129G U130A | 0 |
| G21A U62C U130G | 0 |
| A24G U46C A124G | 1.08 |
| U81C A92U U100A | 0.28 |
| U14C U119C U130C | 1.74 |
| C3U U9G U12C A42U A79U | 0.94 |
| U15C U23C U109A U130C A140G | 1.53 |
| C17U A30G U47C U115A A138G | 1.28 |
| U1A A2G U13C U26C A67U U100C A129U A138G | 1.53 |
| U9A A30G A78G U109C | 0.84 |
